Experimental data taken from PubChem BioAssay AID504332 (National Center for Advancing Translational Sciences (NCATS), 2011).
Among all 350,000 compounds or so, about 31,000 (8.9%) were called active. Inconclusive means that the source gave no clear call. Such entries were picked first, then a sample of the others. Calls follow the shape of the dose curve; as a rule, active = well fitted inhibition curve with a large enough effect; inconclusive = small, poorly fitted or top-dose-only effect; inactive = no such curve, though single readings can be large or run the other way. A potency beside an inconclusive call is a rough fit, not a confirmed value.

Molecular target: Histone-lysine N-methyltransferase EHMT2 (Homo sapiens) (UniProt Q96KQ7)
UniProt Q96KQ7, sequence (Q96KQ7 whole entry, looked up): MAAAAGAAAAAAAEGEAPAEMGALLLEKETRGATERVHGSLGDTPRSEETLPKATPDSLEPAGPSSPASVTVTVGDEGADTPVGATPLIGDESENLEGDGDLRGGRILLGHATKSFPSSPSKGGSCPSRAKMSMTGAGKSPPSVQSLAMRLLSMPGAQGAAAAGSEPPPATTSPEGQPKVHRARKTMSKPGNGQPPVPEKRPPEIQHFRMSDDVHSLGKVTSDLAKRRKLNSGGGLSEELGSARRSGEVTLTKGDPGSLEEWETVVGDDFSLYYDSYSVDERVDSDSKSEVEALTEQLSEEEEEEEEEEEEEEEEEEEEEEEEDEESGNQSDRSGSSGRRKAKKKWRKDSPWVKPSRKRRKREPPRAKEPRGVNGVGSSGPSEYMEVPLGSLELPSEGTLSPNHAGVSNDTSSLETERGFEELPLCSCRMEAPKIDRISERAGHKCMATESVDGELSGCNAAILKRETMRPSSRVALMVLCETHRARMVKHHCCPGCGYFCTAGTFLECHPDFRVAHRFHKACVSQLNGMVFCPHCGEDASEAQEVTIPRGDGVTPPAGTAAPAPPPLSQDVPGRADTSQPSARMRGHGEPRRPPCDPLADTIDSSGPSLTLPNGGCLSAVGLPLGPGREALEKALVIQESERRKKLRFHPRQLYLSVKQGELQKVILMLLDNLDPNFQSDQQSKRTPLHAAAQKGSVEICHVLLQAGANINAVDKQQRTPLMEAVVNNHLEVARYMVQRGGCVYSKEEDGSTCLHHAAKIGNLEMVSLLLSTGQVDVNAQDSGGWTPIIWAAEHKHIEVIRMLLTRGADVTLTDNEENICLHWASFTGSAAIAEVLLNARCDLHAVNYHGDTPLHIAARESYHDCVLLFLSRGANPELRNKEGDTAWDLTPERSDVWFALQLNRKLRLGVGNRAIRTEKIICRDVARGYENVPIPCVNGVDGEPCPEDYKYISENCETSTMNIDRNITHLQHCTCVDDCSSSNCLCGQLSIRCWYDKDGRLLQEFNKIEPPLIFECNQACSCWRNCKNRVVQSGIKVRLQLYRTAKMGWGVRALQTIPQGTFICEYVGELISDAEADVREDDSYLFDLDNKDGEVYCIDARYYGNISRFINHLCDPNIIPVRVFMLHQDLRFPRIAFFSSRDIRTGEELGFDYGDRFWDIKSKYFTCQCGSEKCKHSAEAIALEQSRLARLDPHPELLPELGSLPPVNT
Assay: qHTS Assay for Inhibitors of Histone Lysine Methyltransferase G9a; also: nearly all actives have a fitted effect of over 75% in size
Conditions: G9a H3K9 monomethylation, AlphaScreen, 2 h; activity, negative = inhibition: at 59 µM (top of the series) unless noted
In short: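 Chemiluminescent proximity detection of H3K9 monomethylation, read after 10 min bead incubation in the dark. Reaction: 20 nM G9a, 500 nM biotin-H3K9 peptide, 20 uM SAM cofactor, 2 h, room temperature, following 15 min enzyme-compound preincubation.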
% is scaled to controls: 0 for no effect and ±100 for the full control effect; potency is read from the fitted curve at half-maximal effect; tags tell the direction and shape of the fitted curve.

Row | SMILES | Potency | activity, negative = inhibition
1 | CCOC(=O)C(Nc1ccc2ccccc2c1)C(=O)OCC | active: 2 µM | –
2 | CCN1CCCC1CNC(=O)c1[nH]c2ccc(OC)cc2c1C (centres undefined) | inconclusive: 89.1 µM [inhibitor, single point] | –
3 | O=C(O)c1cccc(S(=O)(=O)Nc2ccccc2-c2ccccc2)c1 | inconclusive: 50.1 µM [inhibitor, partial curve, poor fit] | –
4 | Cc1cccc(NC(=O)c2cc([N+](=O)[O-])ccc2NCC2CCCO2)n1 (centres undefined) | inconclusive: 44.7 µM [inhibitor, partial curve] | –
5 | CCN(CC)S(=O)(=O)c1ccc(OC)c(NC(=O)c2ccc(-n3cncn3)c([N+](=O)[O-])c2)c1 | inconclusive: 89.1 µM [inhibitor, partial curve, poor fit] | –
6 | COc1ccc(CC(=O)NCc2ccc(F)cc2)cc1S(=O)(=O)N1CCOCC1 | inactive | –
7 | COc1cccc(N2C(=O)C3ON(c4ccccc4)C(c4cccs4)C3C2=O)c1 (centres undefined) | inconclusive: 89.1 µM [inhibitor, single point] | –
8 | COc1ccc(C[C@H]2CN3C(=NC[C@@H]3C(C)C)N2C[C@H](C)NC(=O)c2ccc(C)c(Br)c2)cc1 | – | inconclusive: -90% [inhibitor]
9 | COc1ccc(-n2c(COc3ccc(C)cc3)nnc2SCC(N)=O)cc1 | active: 31.6 µM | –
10 | O=C(Nc1cc(F)ccc1F)N1CCC(CN2CCOCC2)CC1 | inactive | –
11 | O=C(NC(=S)NNC(=O)c1ccco1)c1ccccc1 | active: 25.1 µM | –
12 | Cc1cccc(OCCCCn2c(C3CC(=O)N(c4ccccc4Cl)C3)nc3ccccc32)c1 (centres undefined) | active: 12.6 µM | –
13 | Cc1ccc(C(=O)Nc2ccccc2)cc1S(=O)(=O)N1CCN(C)CC1 | inactive | –
14 | Cn1c(=O)n(C/C=C/c2ccccc2)c(=O)c2c1nc1n2CCN1c1ccc(F)cc1 | inactive | –
15 | CCOC(=O)c1c(C)[nH]c(C(=O)C(C)OC(=O)c2cccc(OCc3c(C)noc3C)c2)c1C (centres undefined) | inconclusive: 89.1 µM [inhibitor, single point] | –
16 | COc1ccc(/C=N/NC(=O)c2ccc(C)cc2)cc1CN1CCN(c2ccc(F)cc2)CC1 | – | inactive: -10.5% [at 2.33 µM]
17 | CN1CCN(c2ncc3c(n2)CCN(Cc2cc(Br)cs2)C3)CC1 | inconclusive: 25.1 µM [inhibitor, single point] | –
18 | CC(=O)N1N=C(c2cccc([N+](=O)[O-])c2)OC1(C)c1cccs1 (centres undefined) | inconclusive: 10 µM [inhibitor, partial curve, poor fit] | –
19 | Cc1cc(C)nc(NC(=NCc2ccc3c(c2)OCO3)NC(=O)Nc2ccccc2)n1 | inconclusive: 31.6 µM [inhibitor, partial curve, poor fit] | –
20 | O=C1NC(=S)CN1c1ccccc1 | active: 11.2 µM | –
21 | CCCCc1nc(C(N)=O)c2[nH]c(=O)n(-c3ccc(OCC)cc3)c2n1 | inconclusive: 50.1 µM [inhibitor, partial curve, poor fit] | –
22 | CCOCCn1c(C(C)O)nc2ccccc21 (centres undefined) | inconclusive: 39.8 µM [inhibitor, single point] | –

Row | SMILES | Potency | activity, negative = inhibition
23 | Cc1ccc(NC(=O)COC(=O)[C@H](C)NC(=O)c2ccccc2)cc1S(=O)(=O)N1CCOCC1 | inconclusive: 89.1 µM [inhibitor, single point] | –
24 | COc1ccc(/C=C/C(=O)NCCN=C2NS(=O)(=O)c3ccccc32)cc1 | inactive | –
25 | CCOC(=O)C1CCN(CC(=O)Nc2cc(S(=O)(=O)N3CCCCC3)ccc2Cl)CC1 | inactive | –
26 | O=C1/C(=C/c2ccco2)Cc2ccccc21 | inconclusive: 39.8 µM [inhibitor, single point] | –
27 | CN(CC(=O)Nc1c(Cl)cccc1Cl)C(=O)C1CC(=O)N(Cc2ccccc2)C1 (centres undefined) | inconclusive: 2.51 µM [inhibitor, partial curve, poor fit] | –
28 | CCOc1ccc(NC(=O)CSc2ncc(-c3ccc(F)cc3)n2Cc2ccco2)cc1 | – | inconclusive: -101% [inhibitor]
29 | CCCOC(=O)/C(=C\c1ccc([N+](=O)[O-])o1)NC(=O)c1ccccc1 | inconclusive: 31.6 µM [inhibitor, single point] | –
30 | O=C(CC1C(=O)NCCN1Cc1ccccc1C(F)(F)F)NC1CCCCCC1 (centres undefined) | active: 44.7 µM | –
31 | COc1ccc(C2CC(c3ccccc3OC(C)=O)=NN2C(=O)/C=C/c2ccccc2)cc1OC (centres undefined) | inconclusive: 3.98 µM [inhibitor, single point] | –
32 | COc1ccc(C(=O)N2CCN(Cc3ccccc3[N+](=O)[O-])CC2)cc1 | active: 15.8 µM | –
33 | COc1cc(F)ccc1CN1CCC(n2nccc2NC(=O)C2CCOC2)CC1 (centres undefined) | inactive | –
34 | CCOc1ccc(/C=C2\SC(=S)N(CCC(=O)N(CCO)c3ccccc3)C2=O)cc1 | active: 15.8 µM | –
35 | CC(=O)Nc1ccc(S(=O)(=O)NNC(=O)COc2ccc(Cl)cc2Cl)cc1 | active: 50.1 µM | –
36 | S=C1NCN(Cc2ccco2)CN1CCc1ccccc1 | inconclusive: 44.7 µM [inhibitor, partial curve, poor fit] | –
37 | NC(=O)C[C@@H]1N[C@]2(C(=O)Nc3ccccc32)[C@@H]2C(=O)N(c3cc(C(F)(F)F)ccc3Cl)C(=O)[C@H]12 | active: 50.1 µM | –
38 | CN1/C(=C\C(=O)CSc2ncn[nH]2)C(C)(C)c2ccccc21 | inconclusive: 10 µM [inhibitor, partial curve, poor fit] | –
39 | Cn1cc(CCCC(=O)NCc2ccccc2)c2ccccc21 | inconclusive: 89.1 µM [inhibitor, single point] | –
40 | Clc1ccc(OCCCn2ccnc2)c(Br)c1 | active: 3.55 µM | –
41 | COc1ccc(N2CCN(CCCNS(=O)(=O)c3ccc4c(c3)oc(=O)n4C)CC2)cc1 | inconclusive: 7.08 µM [inhibitor, full curve, poor fit] | –
42 | Cc1ccc(NC(=O)CSc2cc(=O)n(C)c3ccc(Cl)cc23)c(Br)c1 | inactive | –
43 | CCc1ccc(CNC(=O)c2ccc3nc(SCc4ccc(F)cc4)n(C)c3c2)cc1 | inactive | –
44 | COC(=O)[C@@H](Cc1c[nH]c2ccccc12)NC(=O)C1CCCN(S(=O)(=O)c2ccc(C)cc2)C1 (some centres undefined) | inconclusive: 39.8 µM [inhibitor, single point] | –
